Columns and labels:
[1] = Whole body PET imaging / biodistribution in ApoE KO and C57Bl6 mice; format: in vivo
Experimental: Apolipoprotein E-deficient mice (ApoE (−/−) or ApoE KO) and C57Bl6 mice were purchased from Charles River Laboratories (Saint-Germain-sur-L'Arbresles). All the animals were maintained at a constant temperature (24±1° C.) and a hygrometry between 55 to 65% under a 12 hour light/dark cycle, and permitted free access to food and water. Mice were handled and cared in accordance with the Guide for the Care and Use of Laboratory Animals (national Research Council, 1996), the European Council Directive 2010/63/EU and approved by the Ethics Committee no 114 for Animal Experimentation under the reference APAFIS #6271-201605021622180v2, under the supervision of authorized investigators.
Apolipoprotein E-deficient mice (ApoE (−/−) or ApoE KO) were chosen as models for atherosclerosis studies. Mice were bred in the animal facility until the age of 18-20 months for the study. 5 ApoE KO mice were used for each radiotracer.
Darapladib and its radiolabelling precursor were synthesized by improving procedures adapted from the literature. In order to perform PET imaging, a 10 month-ApoE knockout mouse model containing atheromatous plaques was used. ^18F-Darapladib and [18F]-deoxyglucose (used as positive control for detection of metabolically active cells) were injected to both ApoE KO and control C57Bl/6 mice. Animals were imaged for one hour and then sacrificed. […]

atheroma plaques = test: Ex vivo PET imaging of dissected heart and aorta of ApoE KO and C57Bl6 mice; format: in vivo; conditions: for accumulation/labelling in heart and aorta, ex vivo: 15 min PET acquisition after dissection
Experimental: At the end of the PET imaging acquisitions, the animals were sacrificed by cardiac puncture. The heart and aorta were isolated, blood-flushed and placed under the multimodal imager. A PET acquisition of 15 minutes was performed specifically on these tissues to measure the activity associated to the atherosclerosis plaques. At the end of this acquisition, all the organs were collected and placed into glass tubes for the γ-counter measurements.
In order to target blood vessels more precisely, it was sampled both the aorta and heart and performed a 15 min PET acquisition (FIGS. 4, 5, 7A and 7B).
Darapladib and its radiolabelling precursor were synthesized by improving procedures adapted from the literature. In order to perform PET imaging, a 10 month-ApoE knockout mouse model containing atheromatous plaques was used. ^18F-Darapladib and [18F]-deoxyglucose (used as positive control for detection of metabolically active cells) were injected to both ApoE KO and control C57Bl/6 mice. Animals were imaged for one hour and then sacrificed. The aorta and heart were sampled and imaged ex vivo for 15 min. Organs were also sampled to perform biodistribution studies. Imaging was also performed on human carotid endarterectomy samples ex vivo by incubation with both radiotracers separately.

Melanoma B16 tumors = test: PET imaging in tumor-induced inflammatory model (B16 tumors in C57Bl6 mice); conditions: i.v. tail injection, whole body PET
[2] = ApoE KO mice (atheroma plaques)

Compound | organ accumulation, whole body PET imaging ([1]; ApoE KO and C57Bl6 mice (no difference between strains)) | accumulation/labelling in heart and aorta, ex vivo (atheroma plaques; [2]) | accumulation/labelling in heart and aorta, ex vivo (atheroma plaques; C57Bl6 (WT) control mice) | accumulation in heart and aorta, ex vivo (atheroma plaques; both ApoE KO and C57Bl6 mice, listed as 18FDG) | accumulation in the tumor (PET) (Melanoma B16 tumors; listed as 18FDG) | accumulation in the aorta / intravascular on whole body imaging ([1]; ApoE KO mice, imaged for one hour) | accumulation/labelling in heart and aorta, ex vivo (atheroma plaques; ApoE KO mice (atheroma plaques), listed as [18F]-Darapladib) | accumulation/labelling in heart and aorta, ex vivo (atheroma plaques; C57Bl6 (WT) control mice, listed as [18F]-Darapladib) | accumulation in the tumor (PET) (Melanoma B16 tumors; listed as 18F-Darapladib)
CC(C)(C)OC(=O)Cn1c(SCc2ccc([18F])cc2)nc(=O)c2c1CCC2 [A4] | accumulation in the liver and intestine | accumulation of [^18F]N1-FGU in the heart and specifically in atheromatous lesions | – | – | – | – | – | – | –
Fluorodeoxyglucose [[18F]-FDG, reference compound] | – | Plaques but no labelling | No plaques and no labelling | no accumulation was observed for both models | accumulated markedly in the tumor | – | – | – | –
CCN(CC)CCN(Cc1ccc(-c2ccc(C(F)(F)F)cc2)cc1)C(=O)Cn1c(SCc2ccc([18F])cc2)nc(=O)c2c1CCC2 [[18F]Darapladib] | – | – | – | – | – | did not allow to see any accumulation in the aorta | Plaques and labelling along the aorta | No plaques and no labelling | did not show any detectable signal
